From the supplement of paper PMC8728848
Many of the other results were omitted from the sample, so the strongest signals are more common in it than they were.

Assays:
Assay in all cases: glycan array binding signal (z-score within array); higher = stronger binding
Conditions in all cases: glycan notation: IUPAC condensed, linker removed
[1] = tested on: Fuc(a1-2)Gal(b1-3)GalNAc(b1-4)[Neu5Ac(a2-3)]Gal(b1-4)Glc
[2] = tested on: Fuc(a1-2)Gal(b1-4)GlcNAc6S
[3] = tested on: Fuc(a1-2)Gal(b1-4)[Fuc(a1-3)]GlcNAc
Gal(a1-2)Gal = tested on: Gal(a1-2)Gal
Gal(a1-3)GlcNAc = tested on: Gal(a1-3)GlcNAc
Gal(b1-3)Gal = tested on: Gal(b1-3)Gal
[4] = tested on: Gal(b1-4)GlcNAc(b1-6)[Gal(b1-3)]GalNAc
Gal3S(b1-4)Glc6S = tested on: Gal3S(b1-4)Glc6S
Gal3S(b1-4)GlcNAc6S = tested on: Gal3S(b1-4)GlcNAc6S
Gal3S6S(b1-4)GlcNAc6S = tested on: Gal3S6S(b1-4)GlcNAc6S
Gal6S(b1-4)Glc6S = tested on: Gal6S(b1-4)Glc6S
GalNAc(a1-3)Gal = tested on: GalNAc(a1-3)Gal
[5] = tested on: GlcNAc(b1-3)Gal(b1-4)GlcNAc(b1-3)Gal(b1-4)GlcNAc
[6] = tested on: GlcNAc(b1-3)[GlcNAc(b1-6)]GlcNAc
[7] = tested on: GlcNAc(b1-4)GlcNAc(b1-4)GlcNAc(b1-4)GlcNAc(b1-4)GlcNAc(b1-4)GlcNAc
[8] = tested on: GlcNAc(b1-4)GlcNAc(b1-4)GlcNAc(b1-4)GlcNAc(b1-4)GlcNAc
[9] = tested on: Man(a1-2)Man(a1-3)[Man(a1-2)Man(a1-6)]Man
[10] = tested on: Man(a1-2)Man(a1-3)[Man(a1-3)[Man(a1-6)]Man(a1-6)]Man(b1-4)GlcNAc(b1-4)GlcNAc
[11] = tested on: Neu5Ac(a2-3)Gal(b1-3)GalNAc(b1-3)Gal(a1-4)Gal(b1-4)Glc
[12] = tested on: Neu5Ac(a2-3)Gal(b1-3)GlcNAc
[13] = tested on: Neu5Ac(a2-3)Gal(b1-3)[Fuc(a1-4)]GlcNAc
[14] = tested on: Neu5Ac(a2-3)Gal(b1-4)GlcNAc(b1-3)Gal(b1-4)GlcNAc(b1-3)Gal(b1-4)GlcNAc
[15] = tested on: Neu5Ac(a2-3)Gal(b1-4)GlcNAc6S
[16] = tested on: Neu5Ac(a2-3)GalNAc(b1-4)GlcNAc
Neu5Ac(a2-6)GalNAc = tested on: Neu5Ac(a2-6)GalNAc
[17] = tested on: Fuc(a1-2)Gal(b1-4)GlcNAc(b1-2)[Fuc(a1-2)Gal(b1-4)GlcNAc(b1-4)]Man(a1-3)[Fuc(a1-2)Gal(b1-4)GlcNAc(b1-2)Man(a1-6)]Man(b1-4)GlcNAc(b1-4)GlcNAc
[18] = tested on: Fuc(a1-2)Gal6S(b1-3)GlcNAc6S
[19] = tested on: Fuc(a1-2)[Gal(a1-3)]Gal(b1-3)GlcNAc(b1-2)Man(a1-3)[Fuc(a1-2)[Gal(a1-3)]Gal(b1-3)GlcNAc(b1-2)Man(a1-6)]Man(b1-4)GlcNAc(b1-4)[Fuc(a1-6)]GlcNAc
[20] = tested on: Fuc(a1-2)[Gal(a1-3)]Gal(b1-4)GlcNAc(b1-6)GalNAc
[21] = tested on: Fuc(a1-2)[Gal(a1-3)]Gal(b1-4)Glc
Fuc(a1-2)[Gal(a1-3)]Gal = tested on: Fuc(a1-2)[Gal(a1-3)]Gal
[22] = tested on: Fuc(a1-2)[GalNAc(a1-3)]Gal(b1-3)GlcNAc(b1-6)GalNAc
[23] = tested on: Fuc(a1-2)[GalNAc(a1-3)]Gal(b1-3)GlcNAc
[24] = tested on: Fuc(a1-2)[GalNAc(a1-3)]Gal(b1-4)GlcNAc(b1-2)Man(a1-3)[Fuc(a1-2)[GalNAc(a1-3)]Gal(b1-4)GlcNAc(b1-2)Man(a1-6)]Man(b1-4)GlcNAc(b1-4)GlcNAc
[25] = tested on: Fuc(a1-2)[GalNAc(a1-3)]Gal(b1-4)[Fuc(a1-3)]GlcNAc(b1-3)GalNAc
[26] = tested on: Fuc(a1-2)[GalNAc(a1-3)]Gal
[27] = tested on: Gal(a1-3)Gal(b1-4)GlcNAc(b1-2)Man
Gal(a1-3)Gal = tested on: Gal(a1-3)Gal
[28] = tested on: Gal(b1-3)GlcNAc(b1-3)Gal(b1-4)GlcNAc(b1-3)Gal(b1-4)GlcNAc(b1-2)[Gal(b1-3)GlcNAc(b1-3)Gal(b1-4)GlcNAc(b1-3)Gal(b1-4)GlcNAc(b1-6)]Man(a1-6)[Gal(b1-3)GlcNAc(b1-3)Gal(b1-4)GlcNAc(b1-3)Gal(b1-4)GlcNAc(b1-2)Man(a1-3)]Man(b1-4)GlcNAc(b1-4)[Fuc(a1-6)]GlcNAc
[29] = tested on: Gal(b1-3)[Fuc(a1-4)]GlcNAc(b1-6)GalNAc
[30] = tested on: Gal(b1-3)[Neu5Ac(a2-6)]GalNAc
[31] = tested on: Gal(b1-4)GlcNAc(b1-3)Gal(b1-4)GlcNAc(b1-2)Man(a1-3)[Gal(b1-4)GlcNAc(b1-3)Gal(b1-4)GlcNAc(b1-2)Man(a1-6)]Man(b1-4)GlcNAc(b1-4)GlcNAc
[32] = tested on: Gal(b1-4)GlcNAc(b1-3)Gal(b1-4)GlcNAc(b1-3)Gal(b1-4)GlcNAc(b1-2)[Gal(b1-4)GlcNAc(b1-3)Gal(b1-4)GlcNAc(b1-3)Gal(b1-4)GlcNAc(b1-6)]Man(a1-6)[Gal(b1-4)GlcNAc(b1-3)Gal(b1-4)GlcNAc(b1-3)Gal(b1-4)GlcNAc(b1-2)Man(a1-3)]Man(b1-4)GlcNAc(b1-4)[Fuc(a1-6)]GlcNAc
[33] = tested on: Gal(b1-4)GlcNAc(b1-3)Gal(b1-4)GlcNAc(b1-3)Gal(b1-4)GlcNAc(b1-3)Gal(b1-4)GlcNAc(b1-2)Man(a1-3)[Gal(b1-4)GlcNAc(b1-3)Gal(b1-4)GlcNAc(b1-3)Gal(b1-4)GlcNAc(b1-3)Gal(b1-4)GlcNAc(b1-2)Man(a1-6)]Man(b1-4)GlcNAc(b1-4)GlcNAc
[34] = tested on: Gal(b1-4)GlcNAc(b1-6)Gal(b1-4)GlcNAc(b1-6)GalNAc
[35] = tested on: Gal(b1-4)GlcNAc(b1-6)[Gal(b1-4)GlcNAc(b1-3)]GalNAc
Gal3S(b1-3)GlcNAc = tested on: Gal3S(b1-3)GlcNAc
Gal6S(b1-3)GlcNAc6S = tested on: Gal6S(b1-3)GlcNAc6S
Gal6S(b1-4)GlcNAc6S = tested on: Gal6S(b1-4)GlcNAc6S
Gal6S(b1-4)GlcNAc = tested on: Gal6S(b1-4)GlcNAc
GalNAc(b1-3)GalNAc = tested on: GalNAc(b1-3)GalNAc
Glc(b1-4)Glc = tested on: Glc(b1-4)Glc
[36] = tested on: GlcNAc(a1-4)Gal(b1-4)GlcNAc(b1-3)Gal(b1-4)GlcNAc(b1-3)Gal(b1-4)GlcNAc
[37] = tested on: GlcNAc(b1-2)[GlcNAc(b1-4)]Man(a1-3)[GlcNAc(b1-4)][GlcNAc(b1-2)[GlcNAc(b1-6)]Man(a1-6)]Man(b1-4)GlcNAc(b1-4)GlcNAc
[38] = tested on: GlcNAc(b1-3)Gal(b1-4)GlcNAc(b1-6)[GlcNAc(b1-3)]Gal(b1-4)GlcNAc
GlcNAc(b1-3)Gal(b1-4)Glc = tested on: GlcNAc(b1-3)Gal(b1-4)Glc
[39] = tested on: Man(a1-2)Man(a1-2)Man(a1-6)[Man(a1-3)]Man
[40] = tested on: Man(a1-2)Man(a1-3)[Man(a1-2)Man(a1-6)]Man(a1-6)[Man(a1-2)Man(a1-2)Man(a1-3)]Man(b1-4)GlcNAc(b1-4)GlcNAc
[41] = tested on: Man(a1-2)Man(a1-3)[Man(a1-2)Man(a1-6)]Man(a1-6)[Man(a1-2)Man(a1-2)Man(a1-3)]Man
[42] = tested on: Man(a1-2)Man(a1-6)[Man(a1-3)]Man(a1-6)[Man(a1-2)Man(a1-2)Man(a1-3)]Man
[43] = tested on: Neu5Ac(a2-3)Gal(b1-3)GlcNAc(b1-2)Man(a1-3)[Neu5Ac(a2-3)Gal(b1-3)GlcNAc(b1-2)Man(a1-6)]Man(b1-4)GlcNAc(b1-4)GlcNAc
[44] = tested on: Neu5Ac(a2-3)Gal(b1-4)GlcNAc(b1-2)Man(a1-3)[Neu5Ac(a2-3)Gal(b1-4)GlcNAc(b1-2)Man(a1-6)]Man(b1-4)GlcNAc(b1-4)[Fuc(a1-6)]GlcNAc
[45] = tested on: Neu5Ac(a2-3)Gal(b1-4)GlcNAc(b1-2)Man(a1-3)[Neu5Ac(a2-6)Gal(b1-4)GlcNAc(b1-2)Man(a1-6)]Man(b1-4)GlcNAc(b1-4)GlcNAc
[46] = tested on: Neu5Ac(a2-6)Gal(b1-4)GlcNAc(b1-2)Man(a1-3)[Neu5Ac(a2-6)Gal(b1-4)GlcNAc(b1-2)Man(a1-6)]Man(b1-4)GlcNAc(b1-4)[Fuc(a1-6)]GlcNAc
[47] = tested on: Neu5Ac(a2-6)Gal(b1-4)GlcNAc(b1-2)Man(a1-6)[Man(a1-3)]Man(b1-4)GlcNAc(b1-4)GlcNAc
[48] = tested on: Neu5Ac(a2-6)GalNAc(b1-4)GlcNAc
[49] = tested on: Neu5Ac(a2-6)GlcNAc(b1-4)GlcNAc
[50] = tested on: Neu5Gc(a2-8)Neu5Gc(a2-3)Gal(b1-4)GlcNAc(b1-3)Gal(b1-4)GlcNAc

PTX3 (chain not printed)
glycan array binding signal (z-score) [1]: 0.025
glycan array binding signal (z-score) [2]: -0.045
glycan array binding signal (z-score) [3]: -0.268
glycan array binding signal (z-score) (Gal(a1-2)Gal): 0.028
glycan array binding signal (z-score) (Gal(a1-3)GlcNAc): -0.324
glycan array binding signal (z-score) (Gal(b1-3)Gal): 0.109
glycan array binding signal (z-score) [4]: -0.372
glycan array binding signal (z-score) (Gal3S(b1-4)Glc6S): 1.97
glycan array binding signal (z-score) (Gal3S(b1-4)GlcNAc6S): 1.98
glycan array binding signal (z-score) (Gal3S6S(b1-4)GlcNAc6S): 5.66
glycan array binding signal (z-score) (Gal6S(b1-4)Glc6S): 2.46
glycan array binding signal (z-score) (GalNAc(a1-3)Gal): -0.44
glycan array binding signal (z-score) [5]: -0.2
glycan array binding signal (z-score) [6]: -0.352
glycan array binding signal (z-score) [7]: -0.372
glycan array binding signal (z-score) [8]: 0.149
glycan array binding signal (z-score) [9]: -0.5
glycan array binding signal (z-score) [10]: -0.402
glycan array binding signal (z-score) [11]: -0.343
glycan array binding signal (z-score) [12]: -0.301
glycan array binding signal (z-score) [13]: -0.51
glycan array binding signal (z-score) [14]: 0.058
glycan array binding signal (z-score) [15]: 3.79
glycan array binding signal (z-score) [16]: -0.208
glycan array binding signal (z-score) (Neu5Ac(a2-6)GalNAc): -0.544

Langerin (Homo sapiens) (chain not printed)
glycan array binding signal (z-score) [17]: 0.725
glycan array binding signal (z-score) [2]: -0.294
glycan array binding signal (z-score) [18]: -0.235
glycan array binding signal (z-score) [19]: 0.867
glycan array binding signal (z-score) [20]: 0.136
glycan array binding signal (z-score) [21]: -0.39
glycan array binding signal (z-score) (Fuc(a1-2)[Gal(a1-3)]Gal): 7.09
glycan array binding signal (z-score) [22]: -0.175
glycan array binding signal (z-score) [23]: -0.378
glycan array binding signal (z-score) [24]: -0.007
glycan array binding signal (z-score) [25]: 0.531
glycan array binding signal (z-score) [26]: 3.25
glycan array binding signal (z-score) (Gal(a1-2)Gal): -0.385
glycan array binding signal (z-score) [27]: -0.344
glycan array binding signal (z-score) (Gal(a1-3)Gal): -0.382
glycan array binding signal (z-score) [28]: 3.04
glycan array binding signal (z-score) [29]: 0.416
glycan array binding signal (z-score) [30]: -0.262
glycan array binding signal (z-score) [31]: 0.311
glycan array binding signal (z-score) [32]: 0.308
glycan array binding signal (z-score) [33]: -0.082
glycan array binding signal (z-score) [34]: -0.492
glycan array binding signal (z-score) [35]: -0.143
glycan array binding signal (z-score) (Gal3S(b1-3)GlcNAc): -0.42
glycan array binding signal (z-score) (Gal3S(b1-4)Glc6S): -0.354
glycan array binding signal (z-score) (Gal6S(b1-3)GlcNAc6S): 6.33
glycan array binding signal (z-score) (Gal6S(b1-4)Glc6S): 3.27
glycan array binding signal (z-score) (Gal6S(b1-4)GlcNAc6S): 11.9
glycan array binding signal (z-score) (Gal6S(b1-4)GlcNAc): 3.5
glycan array binding signal (z-score) (GalNAc(b1-3)GalNAc): 1.18
glycan array binding signal (z-score) (Glc(b1-4)Glc): -0.356
glycan array binding signal (z-score) [36]: -0.293
glycan array binding signal (z-score) [37]: -0.347
glycan array binding signal (z-score) [38]: 2.59
glycan array binding signal (z-score) (GlcNAc(b1-3)Gal(b1-4)Glc): 1.15
glycan array binding signal (z-score) [39]: 5.76
glycan array binding signal (z-score) [40]: 1.19
glycan array binding signal (z-score) [41]: 3.22
glycan array binding signal (z-score) [42]: 4.6
glycan array binding signal (z-score) [43]: 0.143
glycan array binding signal (z-score) [44]: 0.011
glycan array binding signal (z-score) [45]: -0.428
glycan array binding signal (z-score) [14]: -0.353
glycan array binding signal (z-score) [46]: -0.103
glycan array binding signal (z-score) [47]: -0.23
glycan array binding signal (z-score) [48]: -0.368
glycan array binding signal (z-score) [49]: -0.38
glycan array binding signal (z-score) [50]: -0.29
